The values below come from ChEMBL document CHEMBL4888484, “Replenishing the malaria drug discovery pipeline: Screening and hit evaluation of the MMV Hit Generation Library 1 (HGL1) against asexual blood stage Plasmodium falciparum ,using a nano luciferase reporter read-out” (2022).

Hit rate of the full screen: of about 150,000 compounds, about 540 (0.36%) showed an effect of 50% or more. The list shows a part of the results.

By % Inhibition is commonly meant the change of the read-out against control, counted positive when it falls.

The subject of the test is Plasmodium falciparum. In words: Primary screen in NF54 nanoGlo assay, in single point, at 2uM, 72h; a lower Z score goes with more inhibition. In kind it is functional, Erythrocyte. Particulars: timepoint 72 hour.
For the compound `COc1nc(C)cc(N2CCN(c3ccc(C(=O)O)cc3)C[C@@H]2C)n1`, the “% Inhibition” value is -3% and the Z score is reported as 0.44.

`Cc1nocc1NC(=O)NC[C@](C)(O)c1cccc(F)c1`: the “% Inhibition” value is on record as -6% and the Z score is recorded as 0.9.

For the compound `C[C@@H](C1CCN(C(=O)c2ccc(-c3ccco3)cc2)CC1)N1CCN(C)CC1`, the “% Inhibition” value was found to be 3% and the Z score is recorded as -0.59.

On to `CC(=O)c1cc(C(=O)N2C(C)CN(C(=O)C(C)(C)C)CC2C)n(C)c1` (stereo unspecified), for which the “% Inhibition” value is given as -25% and the Z score is given as 2.32.

Consider `COc1cccc(NC(=O)Cn2cc(-c3noc(-c4ccncc4)n3)nc2C)c1`, for which the “% Inhibition” value was -9% and the Z score stood at 1.2.

On to `Cc1nc(-c2cc(S(=O)(=O)N(C)Cc3ccco3)c(C)n2C)sc1C(=O)N1CCCCC1`, for which the “% Inhibition” value is listed as 5% and the Z score is -0.73.

For the compound `O=C(CN1C[C@H]2CC[C@H]1C2)N1CCN(C(=O)c2ccccc2)CC1`, the “% Inhibition” value worked out at 17% and the Z score was -2.13.

`CCC[C@H](NC(=O)Cc1cc(C)no1)c1cccs1`: the “% Inhibition” value was 16% and the Z score is reported as -2.05.

For the compound `COCCN1C(=O)[C@@H]2CC[C@H]1CN(C(=O)c1[nH]c3ccc(C)cc3c1C)C2`, the “% Inhibition” value is given as -12% and the Z score came out at 1.57.

Turning to `N#Cc1cccc(CN2Cc3nc[nH]c3C[C@H]2C(=O)NCc2ccco2)c1`, the “% Inhibition” value is -5% and the Z score amounted to 0.75.

`CC(C)(C#Cc1ccc(Br)cc1)OC(=O)Nc1cccc2ccccc12`: the “% Inhibition” value is -18% and the Z score stood at 2.36.

Consider `CC(C)(F)C(=O)N[C@H](Cc1ccccc1)C(=O)Nc1ccccc1`, for which the “% Inhibition” value is listed as -7% and the Z score amounted to 0.79.

Turning to `Cc1nccn1CCCn1ncn2cccc2c1=O`, the “% Inhibition” value is reported as -20% and the Z score came out at 2.32.

For `Cc1ccc(F)cc1C(=O)N1C[C@@H]2[C@@H](CN(C)C)[C@@H]2C1`, the “% Inhibition” value was -3% and the Z score amounted to 0.35.

Turning to `CN(C(=O)C1CC1c1ccccc1C(F)(F)F)C1(C#N)CCC1` (stereo unspecified), the “% Inhibition” value is listed as -7% and the Z score was 1.28.

As for `C=C[C@H]1OCC[C@@H]1CNC(=O)NCc1ccc2occc2c1`, the “% Inhibition” value is -10% and the Z score stood at 1.88.

`Cc1ccsc1CN(Cc1cccnc1)CC(C)C`: the “% Inhibition” value is listed as -9% and the Z score stood at 0.87.

Consider `Cc1cc(NC(=O)N[C@H]2CC[C@@H](C(=O)O)C2)n(-c2ccc(C(F)(F)F)cn2)n1`, for which the “% Inhibition” value is given as -12% and the Z score came out at 1.27.

`CN(C)CCN(C[C@H]1CCCO1)C(=O)c1ccncc1`: the “% Inhibition” value is on record as -7% and the Z score is 1.08.

Turning to `COc1ccc(-c2nc3c(cnn3C3CCCC3)[nH]2)c(F)c1F`, the “% Inhibition” value is listed as -3% and the Z score is listed as 0.43.

For `CCNC(=O)C(=O)NC[C@](O)(c1ccoc1)c1ccco1`, the “% Inhibition” value is given as -7% and the Z score came out at 1.06.

On to `N#C[C@@H]1CN(C(=O)c2ccc(O)c(Cl)c2)CCN1C1CC1`, for which the “% Inhibition” value is recorded as -8% and the Z score was found to be 0.95.

Regarding `Cc1ccc(Cl)cc1CN=C(N)N(C)C`, the “% Inhibition” value was -2% and the Z score was found to be 0.21.

As to `Cc1[nH]c2ccc(CNc3nc(Cc4ccc(Cl)cc4Cl)nc4c3nnn4C)cc2c1C`, the “% Inhibition” value is -7% and the Z score turned out to be 0.87.

Consider `O=C1CCCN1Cc1cccc(-c2nc(-c3ccsc3)no2)c1`, for which the “% Inhibition” value was -6% and the Z score came to 1.1.

With `CCN1C[C@]2(CCCN(C(=O)c3ccc4cccnc4c3O)C2)CCC1=O`, the “% Inhibition” value came to 2% and the Z score is recorded as -0.49.

On to `COc1ccc2cc([C@H](C(=O)O)N(C)Cc3ccon3)ccc2c1`, for which the “% Inhibition” value came out at 3% and the Z score is reported as -0.46.

Consider `C[C@H]1CN(Cc2cnn(CC(F)F)c2)c2cccc(F)c2O1`, for which the “% Inhibition” value was -9% and the Z score is 1.42.

In the case of `O=C(c1ccncc1)N1N=C2CCCCCC2C1(O)C(F)(F)F` (stereo unspecified), the “% Inhibition” value was -27% and the Z score came out at 2.86.

In the case of `Cc1ccc2oc(N3C[C@@H]4OC(=O)N(Cc5ccccn5)[C@@H]4C3)nc2c1`, the “% Inhibition” value is on record as -16% and the Z score is recorded as 2.18.

`CC(C)(C)NC(=O)[C@@H]1CC[C@](C)(C(=O)O)C1(C)C`: the “% Inhibition” value was 0% and the Z score stood at 0.02.

Turning to `CCC(=O)N[C@@H]1c2ccccc2C2(CCN(C(=O)c3ccc(C)c(C)c3)CC2)[C@H]1OCc1cccnc1`, the “% Inhibition” value turned out to be 14% and the Z score is listed as -1.9.

`CCn1c(CN2C[C@H]3CC[C@@H](C2)[C@H]3O)nc2ccccc21`: the “% Inhibition” value is on record as -3% and the Z score stood at 0.34.

Take `CCNC(=O)NCC[C@H]1CN(C2Cc3ccccc3C2)CCO1`: the “% Inhibition” value came to 15% and the Z score is listed as -2.

As for `NC(=O)Cn1ccnc1C1CCN(C(=O)c2cc3ccccc3s2)CC1`, the “% Inhibition” value was -12% and the Z score is given as 2.14.

On to `COc1ccc(-c2cnnc(N3CC[C@@H]4CCCC[C@H]4C3)n2)cc1F`, for which the “% Inhibition” value is recorded as -15% and the Z score came to 1.73.

As to `CCCc1cc(C(=O)N2C[C@@H](CN3CCCN(C)CC3)[C@@H](CO)C2)cs1`, the “% Inhibition” value turned out to be 2% and the Z score is -0.22.

With `COc1ccc(C(=O)Nc2ccc(N3CCN(C(=O)c4cccc(Br)c4)CC3)nc2)c(OC)c1`, the “% Inhibition” value was -4% and the Z score turned out to be 0.77.

Consider `CCCCOc1c(Cl)cc(CNCCO)cc1OC`, for which the “% Inhibition” value was determined as 5% and the Z score is -0.88.

Consider `CCNC(=O)c1cc2n(n1)C[C@@H](c1ccc(Br)cc1)OC2`, for which the “% Inhibition” value is -7% and the Z score is given as 1.13.

Regarding `CC1CCCCN1C(=O)c1c(NC(=O)c2ccccc2F)sc2c1CCC(C(C)(C)C)C2` (stereo unspecified), the “% Inhibition” value is reported as -3% and the Z score came out at 0.59.

For the compound `O=C(NCCc1cccs1)c1ccc2c3c(cccc13)CC2`, the “% Inhibition” value was -14% and the Z score was 1.96.

For `O=C(Nc1ccccc1O)[C@H]1CC(=O)N(c2[nH]nc3cc(Br)ccc23)C1`, the “% Inhibition” value is -8% and the Z score turned out to be 0.86.

In the case of `CC(NC(=O)c1ccc2c(c1)OCO2)C1CCCO1` (stereo unspecified), the “% Inhibition” value is recorded as -7% and the Z score is recorded as 1.26.

On to `C[C@@H](c1cccs1)S(=O)(=O)Cc1cn2ccccc2n1`, for which the “% Inhibition” value is -8% and the Z score was determined as 1.18.

Take `O=C(NCC(F)F)c1ccccc1Cl`: the “% Inhibition” value is recorded as 11% and the Z score was -2.21.

Regarding `O=C(Nc1cccnc1)c1ccc(-n2ccnc2-c2ccncc2)cc1`, the “% Inhibition” value is reported as -27% and the Z score is listed as 3.43.

On to `Cc1ccccc1C(=O)Nc1sc2c(c1C(=O)N1CCCCC1)CC[C@H](C)C2`, for which the “% Inhibition” value worked out at 1% and the Z score is recorded as -0.15.

As to `CC(C)[C@H](CNC(=O)c1cnn(C)c1N)Cc1ccccc1`, the “% Inhibition” value is on record as -12% and the Z score turned out to be 1.18.

`COc1ccc2cc1Oc1cccc(c1)CO[C@H]1CN(CC(N)=O)C[C@@H]1NC(=O)CN(C)C2`: the “% Inhibition” value was 4% and the Z score is given as -0.6.

As to `N#CCc1ncc(CCN2C(=O)c3ccccc3C2=O)s1`, the “% Inhibition” value amounted to 51% and the Z score is on record as -6.59.

For `CS(=O)(=O)c1ccc(CNC(=O)c2ccnn2C2CCC2)s1`, the “% Inhibition” value was determined as 2% and the Z score is given as -0.42.

Take `CCN(CC)c1ncc(CN2CCC(n3cncn3)CC2)s1`: the “% Inhibition” value is recorded as -7% and the Z score is given as 0.6.
